# Test results: publication PMC4336329 (PLoS ONE, 2015)
# About 14,000 (4.5%) of roughly 310,000 compounds showed an effect of 50% or more. Effects have a minus sign here. The list shows a part of the results.
# Biological target: human ether-à-go-go-related gene (hERG) potassium channel (human, UniProt Q12809)
# Test: primary screen, population patch clamp on CHO cells stably expressing hERG
# 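Note: peak tail current of the secondary pulse compared with the same well before compound.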
# human ether-à-go-go-related gene (hERG) potassium channel, sequence (Q12809 whole entry, looked up): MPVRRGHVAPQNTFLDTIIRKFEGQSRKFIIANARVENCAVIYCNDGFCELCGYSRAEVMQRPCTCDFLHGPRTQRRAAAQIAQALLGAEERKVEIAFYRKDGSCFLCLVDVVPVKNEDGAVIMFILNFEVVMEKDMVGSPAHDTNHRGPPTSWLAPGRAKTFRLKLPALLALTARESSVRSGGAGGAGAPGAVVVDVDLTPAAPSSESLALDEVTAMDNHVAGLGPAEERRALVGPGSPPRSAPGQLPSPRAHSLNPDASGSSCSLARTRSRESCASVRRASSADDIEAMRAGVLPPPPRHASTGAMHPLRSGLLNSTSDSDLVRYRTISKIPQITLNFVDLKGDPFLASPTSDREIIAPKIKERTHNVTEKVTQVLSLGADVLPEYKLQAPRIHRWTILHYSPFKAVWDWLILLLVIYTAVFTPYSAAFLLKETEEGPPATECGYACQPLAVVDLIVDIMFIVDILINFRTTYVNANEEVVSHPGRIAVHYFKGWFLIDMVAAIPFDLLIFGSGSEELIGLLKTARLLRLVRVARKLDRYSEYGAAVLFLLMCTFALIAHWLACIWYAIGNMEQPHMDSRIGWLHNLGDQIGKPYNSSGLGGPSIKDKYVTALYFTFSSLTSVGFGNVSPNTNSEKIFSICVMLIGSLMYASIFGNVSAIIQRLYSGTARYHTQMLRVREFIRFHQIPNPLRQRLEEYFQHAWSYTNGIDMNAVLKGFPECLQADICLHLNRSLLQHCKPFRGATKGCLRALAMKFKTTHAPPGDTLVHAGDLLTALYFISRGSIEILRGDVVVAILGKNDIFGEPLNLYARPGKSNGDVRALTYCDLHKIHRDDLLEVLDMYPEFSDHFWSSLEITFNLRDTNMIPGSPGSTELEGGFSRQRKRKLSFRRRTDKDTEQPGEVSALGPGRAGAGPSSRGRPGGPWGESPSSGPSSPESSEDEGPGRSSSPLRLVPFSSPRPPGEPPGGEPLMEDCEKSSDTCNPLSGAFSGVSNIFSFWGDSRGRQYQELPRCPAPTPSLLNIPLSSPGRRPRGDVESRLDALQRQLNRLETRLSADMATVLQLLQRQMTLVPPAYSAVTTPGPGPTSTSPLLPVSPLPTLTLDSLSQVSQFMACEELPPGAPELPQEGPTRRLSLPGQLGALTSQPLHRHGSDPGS
row,SMILES,"hERG current change (%, negative = inhibition) at 10uM"
1,O=c1c2ccccc2nc(-c2ccc([N+](=O)[O-])cc2)n1-c1ccccc1,3.1%
2,COc1ccc(NC(=O)Cn2c(-c3ccc(OC)cc3)cn(-c3ccc(C)cc3)c2=O)cc1,5.11%
3,O=C(c1ccoc1)N1CCC2(CC1)Oc1ccc(Cl)cc1C(=O)C21CC(c2ccccc2)=NO1 (stereo not drawn),-1.66%
4,Cc1ccc(-c2cc(-c3ccc4c(c3)OCO4)c(C#N)c(N)n2)o1,4.5%
5,c1ccc(-c2csc3ncnc(NCCCN4CCOCC4)c23)cc1,-13.2%
6,Cc1nnc(SCC(=O)NC2CC2)n1-c1ccccc1,17.3%
7,O=c1cc(-c2ccccc2)[nH]c2ccc(F)cc12,5.52%
8,COc1ccc(-n2nc(C(=O)NCC(=O)NCc3ccc(F)cc3)c3ccccc3c2=O)cc1,-12.1%
9,Cc1cccc2cc(COC(=O)COc3ccccc3)c(=O)[nH]c12,0.22%
10,Cc1ccc(NC(=O)c2sccc2C)nc1,22.8%
11,c1coc(CN2CN=C(Nc3nc4ccccc4s3)NC2)c1,20.6%
12,CCn1nc(C)c(NC(=O)/C=C/c2ccc(OC)c(COc3ccc(Cl)cc3Br)c2)c1C,3.94%
13,CNS(=O)(=O)Cc1ccc2[nH]cc(CCN(C)C)c2c1.O=C(O)CCC(=O)O,-1.48%
14,COc1cc(CN2CCN(CCCc3ccccc3)CC2CCO)cc(OC)c1 (stereo not drawn),-71.1%
15,O=c1[nH]c(=S)n(-c2ccccc2)c(O)c1/C=N/N1CCCCC1c1cccnc1 (stereo not drawn),-9.96%
16,CCSC(=S)Nc1c(C)n(C)n(-c2ccccc2)c1=O,11.7%
17,CCNC(=S)Nc1ccc(-c2nc3ccccc3[nH]2)cc1,-17.3%
18,COc1ccc(OC)c(Nc2nc(-c3cccs3)cs2)c1,-5.13%
19,COc1ccc(OCc2nn3c(-c4ccco4)nnc3s2)cc1,-36.6%
20,Cc1ccnc(N2C(=O)OC(C)(C)C2(C)O)c1 (stereo not drawn),0.00718%
21,N/C(=N\c1nc(CSc2nc3ccccc3s2)cc(=O)[nH]1)Nc1ccc(F)cc1,8.33%
22,CCNC(=O)C(C)Sc1ccc(Cl)cc1 (stereo not drawn),4.22%
23,CCCS(=O)(=O)c1c(S(=O)(=O)CCC)c2c3ccccc3ccn2c1C(N)=O,-18.7%

row,SMILES,"hERG current change (%, negative = inhibition) at 10uM"
1,COc1ccc(NC(=O)NC2CCCc3ccccc32)cc1OC (stereo not drawn),9.56%
2,O=C1CCc2cc(S(=O)(=O)N3CCC(C(=O)NCc4ccccn4)CC3)ccc2N1,16.9%
3,NC(=NCCc1c[nH]c2ccccc12)NS(=O)(=O)c1ccc2ccccc2c1,14.8%
4,Cc1ccc2c(c1)sc1ncc(NC(=O)c3ccc(F)cc3)c(=O)n12,12.7%
5,COCc1cc(=O)[nH]c(SCC(=O)N2CCOCC2)n1,24%
6,Cc1cc(NC(=O)c2noc3c2CCCC3)n(-c2ccccc2)n1,-20.4%
7,O=C(Nc1ccc(Cl)c(C(F)(F)F)c1)C1CCCN(S(=O)(=O)c2cnc[nH]2)C1 (stereo not drawn),-16%
8,COc1cccc(CN2CCNC(=O)C2CC(=O)NCCN2CCOCC2)c1OC (stereo not drawn),-2.05%
9,COc1ccc(C(=O)N=c2sc3c(C)ccc(OC)c3n2C)cc1,6.32%
10,CO/N=C(\C)c1ncc(C(F)(F)F)cc1N1CCOCC1,25.9%
11,COc1cc2c(cc1NC(=O)CSc1ccc(C)cc1)oc1ccccc12,-5.57%
12,Cc1ccc(C)c(C(C)NC(=O)CC#N)c1 (stereo not drawn),11.5%
13,O=C(Oc1c(-c2ccco2)oc2ccccc2c1=O)c1cccnc1,8.68%
14,O=C(Nc1cccnc1)c1ccc(Cl)cc1[N+](=O)[O-],8.31%
15,Cc1ccc(C)c(N2C(=O)CC(Cc3ccc(Cl)cc3)C2=O)c1 (stereo not drawn),-4.11%
16,CN(C(=S)NC(=O)c1ccccc1)c1c(N)n(Cc2ccccc2)c(=O)[nH]c1=O,0.51%
17,Cc1ccccc1CSc1ncc(C#N)c(N)n1,-3.68%
18,c1ccc(C2=Nn3c(nnc3-c3cccs3)SC2)cc1,3.43%
19,Cc1cccc(C2=NNC(=O)C(c3ccc(Cl)cc3)C2)c1 (stereo not drawn),3.78%
20,COc1ccc(C(CN(C)C)C2(O)CCCCC2)cc1.Cl (stereo not drawn),-4.05%
21,Cc1cccc(NC(=O)CSc2nc3ccccc3c3nc(CCc4c(C)n[nH]c4C)nn23)c1,-9.44%
22,Cc1nnc(SCC(=O)N/N=C/c2ccc(-c3ccc(C)c(Cl)c3)o2)s1,-1.51%
